Measured values published in PubChem BioAssay AID596 (National Center for Advancing Translational Sciences (NCATS), 2007).
About 1,400 (2%) of roughly 71,000 compounds were called active. The inconclusive results got no clear call from the source; some entries with a clear call stand among them for comparison. Calls follow the shape of the dose curve; as a rule, active = well fitted curve in the direction sought with a large enough effect; inconclusive = small, poorly fitted or top-dose-only effect; inactive = no such curve, though single readings can be large or run the other way. Potencies beside an inconclusive call are fits to weak or partial responses and may not hold up.

Target: Microtubule-associated protein tau (Homo sapiens) (UniProt P10636)
Assay: qHTS Assay for Tau Filament Binding;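 also: actives lower thioflavin S fluorescence by blocking filaments or displacing dye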
Details: recombinant tau filaments, thioflavin S fluorescence, 15 h, filaments grown with octadecylsulfate alongside compound; series mostly up to 57.1 µM; activity change, negative = inhibition: at the top concentration
Method in brief: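 Assay mix: 1 uM His-tagged tau, 30 uM sodium octadecylsulfate, thioflavine S dye in HEPES/NaCl/DTT buffer. Compound is added prior to the inducer. Fluorescence after 15 h at 37 C.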
% is scaled to controls: 0 for no effect and ±100 for the full control effect; potency is read from the fitted curve at half-maximal effect.

UniProt P10636, sequence (P10636 whole entry, looked up): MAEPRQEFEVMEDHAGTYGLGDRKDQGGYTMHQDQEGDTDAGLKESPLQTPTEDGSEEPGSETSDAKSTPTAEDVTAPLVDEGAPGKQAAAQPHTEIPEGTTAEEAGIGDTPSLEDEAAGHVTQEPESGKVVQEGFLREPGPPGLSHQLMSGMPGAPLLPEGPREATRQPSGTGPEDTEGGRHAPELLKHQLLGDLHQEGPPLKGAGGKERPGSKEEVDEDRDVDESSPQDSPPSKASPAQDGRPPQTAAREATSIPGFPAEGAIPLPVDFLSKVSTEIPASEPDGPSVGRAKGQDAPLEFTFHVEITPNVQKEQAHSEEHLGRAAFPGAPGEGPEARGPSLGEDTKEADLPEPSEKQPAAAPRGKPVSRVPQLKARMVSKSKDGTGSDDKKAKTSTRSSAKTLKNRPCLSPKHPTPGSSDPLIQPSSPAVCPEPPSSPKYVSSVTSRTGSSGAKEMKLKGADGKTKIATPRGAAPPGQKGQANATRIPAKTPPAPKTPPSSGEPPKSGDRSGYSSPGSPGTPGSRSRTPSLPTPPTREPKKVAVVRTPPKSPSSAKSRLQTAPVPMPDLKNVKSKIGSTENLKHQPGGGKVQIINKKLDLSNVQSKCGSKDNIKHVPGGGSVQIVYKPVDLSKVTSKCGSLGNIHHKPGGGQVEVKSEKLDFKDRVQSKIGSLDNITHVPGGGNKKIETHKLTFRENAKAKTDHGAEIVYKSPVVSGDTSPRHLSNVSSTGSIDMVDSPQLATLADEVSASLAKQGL

Structure (SMILES)	Potency	activity change, negative = inhibition
COc1ccc(CN2C(=O)c3cccnc3C2Nc2cc(Cl)c(OC)cc2OC)cc1 (stereo not given)	inconclusive: 31.6 µM [decreasing]	–
CC(NS(=O)(=O)c1ccc(OCC(=O)N2CCOCC2)c(Cl)c1)c1ccccc1 (stereo not given)	–	inactive: 5.3%
COc1ccc(Oc2ncc3nc(-c4ccccc4)c(=O)n(Cc4cccs4)c3n2)cc1	inconclusive: 7.94 µM [decreasing]	–
CN(C)c1ccc(NC(=O)CSc2nc3ccccc3c(=O)n2C2CCCCC2)cc1	inconclusive: 31.6 µM [decreasing]	–
CCCCNC(=O)c1ccc2nc(-c3ccco3)c(-c3ccco3)nc2c1	inconclusive: 1 µM [decreasing]	–
CCN(CC)CCCCn1c(-c2ccccc2)nc2c(Nc3ccccc3)nc(C)nc21	–	inactive: 81.7%
COc1ccc(N=c2oc3c(OC)cccc3cc2C(=O)NCc2ccco2)cc1OC	active: 1.26 µM	–
O=C(COC(=O)C1CCCCC1)Nc1ccc(N2CCCCC2)cc1	inconclusive: 31.6 µM [decreasing]	–
COc1ccc(-c2cc(C(=O)O)c(C)o2)cc1OC	–	inactive: 1.6%
C[N+](C)([O-])Cc1cc(-c2ccccc2)ccc1O	–	inactive: 3.2% [at 11.4 µM]
CCOC(=O)c1cccc(NC(=O)CCS(=O)(=O)c2cccc3nsnc23)c1	inconclusive: 39.8 µM [decreasing]	–
CN(C)Cc1ccccc1-c1ccc2ncnc(NC3CCNCC3)c2c1	–	inactive: -17.5%
O=c1oc(-c2ccco2)nc2ccccc12	–	inactive: 41.5%
O=C1c2ccccc2C(Nc2ccc3c(c2)OCCO3)N1Cc1ccccc1 (stereo not given)	active: 20 µM	–
COc1ccc(OC)c(C(c2nnnn2CCC(C)C)N2CCN(C(=O)c3ccco3)CC2)c1 (stereo not given)	–	inactive: 12.7%
COc1ccc2c(=O)c3c(=O)n(Cc4ccco4)c(-c4ccc(C)cc4)nc3oc2c1	active: 10 µM	–
Cc1cc(C)c2nc3s/c(=C/c4ccc5c(c4)n(C)c(=O)n5C)c(=O)n3c2c1	active: 25.1 µM	–
CN(c1nnc(N)s1)C1CCCCC1	inconclusive: 25.1 µM [decreasing]	–
Cc1[nH]ccc2c1[nH]c1cc(=O)ccc12	inconclusive: 39.8 µM [decreasing]	–
Oc1cc(O)c2c(c1)O[C@H](c1ccc(O)c(O)c1)[C@@H](O)C2	inconclusive: 39.8 µM [decreasing]	–
C[N+]1(C)CCC(OC(=O)C(c2ccccc2)c2ccccc2)CC1	inconclusive: 39.8 µM [decreasing]	–
COCCc1ccc(OC[C@H](O)CNC(C)C)cc1	inactive	–

Structure (SMILES)	Potency	activity change, negative = inhibition
COc1cccc(-c2nc(NCCc3c[nH]c4ccc(OC)cc34)c3ccccc3n2)c1	inconclusive: 3.16 µM [decreasing]	–
Cc1cccc(NC(=O)Cn2nnc(-c3cccs3)n2)c1C	active: 12.6 µM	–
COc1cccc(Nc2ncc3nc(CCc4ccccc4)c(=O)n(C4CC4)c3n2)c1	–	inactive: 442%
O=C(OCCCCN1C(=O)c2ccccc2C1=O)c1n[nH]c2ccccc12	inconclusive: 31.6 µM [decreasing]	–
COCCNc1ncnc2ccc(-c3ccc(N(C)C)cc3)cc12	active: 15.8 µM	–
O=C(Nc1ccccc1)N1CC[C@@]2(CCCN(C(=O)c3cc(C(F)(F)F)cc(C(F)(F)F)c3)C2)C1	–	inactive: -9.6%
CC(C)N=C(N)/N=C(\N)Nc1ccc(Cl)cc1	inconclusive: 12.6 µM [decreasing]	–
O=C(CC1COc2ccccc2O1)Nc1ccccn1 (stereo not given)	–	inactive: -1.1%
OC[C@@H]1O[C@@H](O)[C@H](N=Cc2ccc3c(c2)OCO3)[C@@H](O)[C@@H]1O	–	inactive: 6.7% [at 11.4 µM]
Cc1c(Cc2ccccc2)sc(N)c1C(N)=O	active: 15.8 µM	–
O=C(c1ccncc1)N1CCC2(CCCN(c3ncccn3)C2)CC1	–	inactive: 16.9%
CSc1nc2nc(-c3ccccc3)cc(C(F)(F)F)n2n1	inconclusive: 39.8 µM [decreasing]	–
Cc1ccc(C)n1-n1cnc2sc(-c3ccccc3)cc2c1=O	–	inactive: -5.7%
COc1cccc(NC(=O)CSc2nc3c(c(-c4ccco4)c2C#N)CCCC3)c1	inconclusive: 25.1 µM [decreasing]	–
CCOc1cc(CNc2ccc3[nH]c(=O)[nH]c3c2)ccc1OCC(=O)NC(C)(C)C	inconclusive: 7.94 µM [decreasing]	–
O=C(C[n+]1ccc2ccccc2c1)c1ccc2ccc3ccccc3c2c1	active: 2 µM	–
CC(C(=O)N(C1CC1)C1(C(=O)Nc2ccccc2)CCCC1)N1C(=O)c2ccccc2C1=O (stereo not given)	inconclusive: 39.8 µM [decreasing]	–
CCOc1cc(N2CCOCC2)c(OCC)cc1NC1=NCCCCC1	inconclusive: 20 µM [decreasing]	–
CC(Oc1ccc(O)cc1)(P(=O)(O)O)P(=O)(O)O	inconclusive: 39.8 µM [decreasing]	–
COc1ccccc1-c1nccc(Nc2ccc(F)cc2)n1	active: 15.8 µM	–
COc1ccccc1-c1nc(N(C)Cc2ccco2)c2ccccc2n1	active: 7.94 µM	–
Cc1ccc2nc(C(O)C(O)c3nc4ccc(C)cc4[nH]3)[nH]c2c1 (stereo not given)	inconclusive: 31.6 µM [decreasing]	–

Structure (SMILES)	Potency	activity change, negative = inhibition
O=C1Nc2ccc(S(=O)(=O)N3CCCCCC3)c3cccc1c23	active: 25.1 µM	–
O=C(CCn1ccc2ccccc21)Nc1ccc(N2CCOCC2)cc1	inconclusive: 39.8 µM [decreasing]	–
C=CCn1c2ccccc2c2nnc(SCN3C(=O)c4ccccc4C3=O)nc21	inconclusive: 3.16 µM [decreasing]	–
Cc1cc(NC(=O)CSc2nc3ccsc3c(=O)n2Cc2ccccn2)n[nH]1	–	inactive: 9.8%
CN(C)c1ccc(NC(=O)Cn2ncn3c(cc4ccccc43)c2=O)cc1	active: 12.6 µM	–
Cc1ccccc1-c1ccc2ncnc(-n3ccnc3)c2c1	–	inactive: 141%
N#Cc1cccc(NC(=O)Nc2cccs2)c1	inconclusive: 31.6 µM [decreasing]	–
O[C@@H]1CC[C@H]2Cc3ccccc3N=C21	inconclusive: 39.8 µM [decreasing]	–
CCN(CC)S(=O)(=O)c1ccc(C(=O)NC2=C(C(=O)OC)SCC2)cc1	inconclusive: 31.6 µM [decreasing]	–
C[N+](C)(C)c1cc2c(nn1)Nc1ccccc1S2	–	inactive: -27.1% [at 11.4 µM]
CC1(C(=O)NCC2CC2)C=CC2(CCCCC2)N1C(=O)c1ccccc1 (stereo not given)	–	inactive: 0.5%
CC(C)n1cc(/C=C(\C#N)S(=O)(=O)c2ccccc2)c2ccccc21	active: 7.94 µM	–
C=CCn1cnc2c(c1=O)c1nc3ccccc3nc1n2/N=C/c1cccc(OC)c1	active: 3.16 µM	–
CCC(C(=O)N1CC2(C)CC1CC(C)(C)C2)N1C(=O)c2ccccc2C1=O (stereo not given)	inconclusive: 25.1 µM [decreasing]	–
COc1ccccc1NC(=O)CSc1nnc(Cc2cccn2C)n1CCc1ccccc1	–	inactive: 9.6%
COc1ccc(-c2nc3cnc(N4CCN(C)CC4)nc3n(C3CC3)c2=O)cc1	–	inactive: 0.9%
O=C(CN1CCN(c2ccc(F)cc2)CC1)Nc1cccc(C(F)(F)F)c1	–	inactive: -3.8%
Cc1cc(O)c(-c2cc(C(=O)Nc3ccc(S(=O)(=O)N4CCOCC4)cc3)[nH]n2)cc1C	–	inactive: 418%
CCOC(=O)N1CCC(=C2c3ccc(Cl)cc3CCc3cccnc32)CC1	inconclusive: 39.8 µM [decreasing]	–
O=C(CSc1nc2cccnc2n1Cc1ccccc1)NCc1ccco1	–	inactive: -3.1%
O=C(c1ccco1)N1CCN(Cc2ccccc2C(F)(F)F)CC1	inconclusive: 6.31 µM [decreasing]	–
N[C@H](CC(=O)O)C(=O)O	inconclusive: 39.8 µM [decreasing]	–

Structure (SMILES)	Potency	activity change, negative = inhibition
COc1ccccc1C(=O)Nc1ccccn1	–	inactive: 114%
Cc1nc(N=Nc2cc(S(=O)(=O)O)ccc2S(=O)(=O)O)c(COP(=O)(O)O)c(C=O)c1O	inconclusive: 39.8 µM [decreasing]	–
CCOc1ccccc1N1CC(O)=C(c2nc3ccccc3s2)C1=N	inconclusive: 15.8 µM [decreasing]	–
CC[C@@]1([N+](=O)[O-])C[C@H]2C=C[C@@H]1C2	–	inactive: -5.9% [at 11.4 µM]
CCOC(=O)c1c(C)oc2c1c(/C=N/c1ccccn1)c(O)c1ccccc12	inconclusive: 1 µM [decreasing]	–
O=C(OCCN1CCOCC1)C1(c2ccccc2)CCCCC1	inconclusive: 39.8 µM [decreasing]	–
CCCCNC(=O)CC1N=C2c3ccccc3N=C(SCC(=O)Nc3ccc(OC)cc3)N2C1=O (stereo not given)	inconclusive: 39.8 µM [decreasing]	–
C=Cc1cccc(C)c1	–	inactive: -7.5%
O=C(NCCc1c[nH]c2ccccc12)C1CCN(c2nnc(N3CCCC3=O)s2)CC1	inconclusive: 15.8 µM [decreasing]	–
COc1ccc(-c2coc3cc(O)ccc3c2=O)cc1	active: 31.6 µM	–
CCCC(=O)c1cc(O)c(O)cc1O	inconclusive: 12.6 µM [decreasing]	–
Cc1nnc(NC(=O)CSc2nc3c(c(=O)n2C)SC(C)C3)s1 (stereo not given)	inconclusive: 39.8 µM [decreasing]	–
N[C@@H](CC(=O)O)C(=O)O	inconclusive: 39.8 µM [decreasing]	–
Cc1cc(C)c2cc(C#N)c(SCC(=O)NCc3ccco3)nc2c1	active: 20 µM	–
Cn1cccc1C(=O)OCC(=O)c1cc2ccccc2o1	active: 15.8 µM	–
O=c1ccc2cc3ccoc3cc2o1	inconclusive: 39.8 µM [decreasing]	–
CCCCNc1cc(NC(C)=O)cc2cc(OC)c(OC)cc12	active: 25.1 µM	–
O=C(O)[C@H]1CN(CCCP(=O)(O)O)CCN1	inconclusive: 39.8 µM [decreasing]	–
COc1ncc2nc(-c3ccc(Cl)cc3)c(=O)n(-c3ccccc3)c2n1	inconclusive: 7.94 µM [decreasing]	–
